Results published in the RNAGym collection of RNA variant scans (doi:10.1073/pnas.2313332121).
Variants at the background level are over-represented here.

B1: TPR 5TU (parent)
chain: GGAUCUUCUCGAUCUAACAAAAAAGACAAAUCUGCCACAAAGCUUGAGAGCAUCUUCGGAUGCAGAGGCGGCAGCCUUCGGUGGCGCGAUAGCGCCAACGUUCUCAACUAUGACACGCAAAACGCGUGCUCCGUUGAAUGGAGUUUAUCAUG

Variants of: B1
Assay: polymerase ribozyme fitness, log enrichment relative to wild type (log ratio); higher = more active; in vitro selection for triplet polymerase activity
Method in brief: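 Mutant libraries of both subunits of a heterodimeric triplet polymerase ribozyme were PCR-built, transcribed, and selected once in triplicate, with frozen incubation at −7 °C and capture of gel-excised extended constructs on streptavidin beads before RT-PCR. Illumina sequencing of input and output libraries was filtered to genotypes with ≥10 input reads and ≥1 read per output. Fitness is the logarithm of genotype enrichment over wild-type enrichment, using inverse-variance-weighted replicate averages. The logarithm is base 2.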

Variant | polymerase ribozyme fitness (log ratio)
A12U U77A C79U G86U A98C U101G A142G | ≤ -4.2
U13A A16U A22C C32A C87A G141U C149G | ≤ -4.2
U13A A17U A24C A60G G84U A106G A142G A147U | ≤ -4.2
U13A A19G C35G C57A C79G A91C A121G | ≤ -4.2
U13A A19U A22U A26U G70U C96A U111A | ≤ -4.2
U13A A19U A37C U45A A49C C51U C76U G94A G133U U134A G140U U148A | ≤ -4.2
U13A A20U A28C C93U G136C A137U | ≤ -4.2
U13A A20U G48A U56A G88U C96A A122C | ≤ -4.2
U13A A21C A73G C85G A89U | -2.11
U13A A21G G50A C51U U61G U82G U90A G92A A106C | ≤ -4.2
U13A A23G C32A G58A C69G C85U | ≤ -4.2
U13A A23U C38U A40C A60U G68C U102A | ≤ -4.2
U13A A23U U31G C35U G92U A106U C114U U148C | ≤ -4.2
U13A A28G C32U A47G C54U C85A G88U C108U G143C | ≤ -4.2
U13A A28U U82G C99G C103A C116G | ≤ -4.2
U13A A30C A52G C85A A110G A115C U148C | ≤ -4.2
U13A A52C C87A G88U U135C | ≤ -4.2
U13A A52G U56A C75U U78A C87U C93A G136C C149A | ≤ -4.2
U13A A60G C85G C118G A121U U139A | ≤ -4.2
U13A A73G G84A | -0.387
U13A A73U A91G A121U A122G G141C U151A | ≤ -4.2

Variant | polymerase ribozyme fitness (log ratio)
U13A A91G C114U A120G | -4.09
U13A C14G A26G U56A U109C C123A U146A | ≤ -4.2
U13A C14U C43A G65C G83C U90C | ≤ -4.2
U13A C18G G50C C72G A91C G92A G140A | ≤ -4.2
U13A C18U U33A A73C C93A U109G | ≤ -4.2
U13A C27G A40U G70C C85U G112C G133A | ≤ -4.2
U13A C32A U44C C75U C76U | ≤ -4.2
U13A C32U G67C C85A C105U G140A | ≤ -4.2
U13A C38U G83C G140A | ≤ -4.2
U13A C51U U82A A91U G100A | ≤ -4.2
U13A C85U A107U C125A G126C | ≤ -4.2
U13A G25U C85G | -3.79
U13A G34A C43U A52C C57U G59U U77G C114U | ≤ -4.2
U13A G42C C54U G94A G143C | ≤ -4.2
U13A G46U G59A A91G C95U G117A | ≤ -4.2
U13A G59A G80C | ≤ -4.2
U13A G62A A142G | -2.22
U13A U15C A26U C85G G141C | ≤ -4.2
U13A U53A G71A A107G U146G | ≤ -4.2
U13A U55A G58U A60G C87G A115C U151G | ≤ -4.2
U13A U56G A64U G88U U127G G133U | ≤ -4.2

Variant | polymerase ribozyme fitness (log ratio)
U13A U111G | ≤ -4.2
U13C A16G U44A C85G | ≤ -4.2
U13C A16U C36G C118A G140C G143A | ≤ -4.2
U13C A19C A22C A49U U53G C57A U111C G136U G141C | ≤ -4.2
U13C A19C C36G C63A C95A C96U | ≤ -4.2
U13C A19G U45G C93A A106U | -2.34
U13C A20C G50C | -3.15
U13C A20C U55A A73U C85G G126U | ≤ -4.2
U13C A21C A23C G92U A142G A147U | ≤ -4.2
U13C A26G A52G C54U U82A C95U A107G | ≤ -4.2
U13C A29U A52C G86C A107C U109A | ≤ -4.2
U13C A37C U45G A49C G68A C79A | ≤ -4.2
U13C A40C G48C G50C G83U | ≤ -4.2
U13C A49C C57G G68C G83C G84A U101G A115U | ≤ -4.2
U13C A52G A64G G68A | ≤ -4.2
U13C A52G U102C C118G | -3.18
U13C C14U C54A G92A | ≤ -4.2
U13C C18U U44A C96U C105G C116U C118G G143C | ≤ -4.2
U13C C27A A49C U56A A97U | ≤ -4.2
U13C C36A C93U A107U G112U G140U | ≤ -4.2
U13C C69A C87G A97U A147U | ≤ -4.2

Variant | polymerase ribozyme fitness (log ratio)
U13C C72A C85A | ≤ -4.2
U13C C87A | ≤ -4.2
U13C C125A G136C U145C U146C | -3.59
U13C G48U G83A G92A | ≤ -4.2
U13C G58A G88U U90A U102G | ≤ -4.2
U13C G58U G94U C95U A142G U144G | -4.05
U13C G83C C96U C114U | -4.13
U13C U15G G68A C79G G136A G141A U144A | ≤ -4.2
U13C U44A U56A C79U C93G C95U A115C G141U | ≤ -4.2
U13C U53C G94C A98C U148G | ≤ -4.2
U13G A16C A49C C95A C96G G117C | ≤ -4.2
U13G A16U A52U C63U C103U | ≤ -4.2
U13G A17U A23U C43U A49G G86A A98U G124U U134C | ≤ -4.2
U13G A19G G42A U56A C85A G143A G152A | ≤ -4.2
U13G A19U A28U U61A C76U A91G C132G | ≤ -4.2
U13G A20C A37G G62A G65C C93G | ≤ -4.2
U13G A20U C38U C87G G92U A110U | ≤ -4.2
U13G A22C G68C G88A | ≤ -4.2
U13G A22U C93G A107G C108G | ≤ -4.2
U13G A26C G42U U53A U78A A107U | ≤ -4.2
U13G A26C G84U A97U C118U | ≤ -4.2
